# Measured values: PubChem BioAssay AID1963576 (National Center for Advancing Translational Sciences (NCATS), 2024)
# In all, about 46,000 compounds went through this assay and about 60 (0.1%) were called active. About 3% were inconclusive and are not listed. Calls come from the whole dose curve; as a rule, active = well fitted inhibition curve with a large enough effect; inconclusive = small, poorly fitted or top-dose-only effect; inactive = no such curve, though single readings can be large or run the other way. This is one part of the list.
# Test: Primary qHTS assay for Inhibitors of ovarian cancer metastasis using an organotypic tumor microenvironment (TME) model.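 For activity change, negative = inhibition: plate controls were DMSO wells for no effect and tomatine positive control wells for full effect.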 Note: nearly all actives have a fitted effect of over 65% in size.
# Conditions: SKOV3ip1-GFP adhesion/invasion on 3D omental model, fluorescence; series mostly up to 45.8 µM; activity change, negative = inhibition: at the top concentration
# Outline: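 Primary human omental fibroblast/mesothelial 3D culture pre-formed 48 h. SKOV3ip1-GFP cells added with compounds (0.36-46 umol/L), incubated 2 h RT/16 h 37 C, fixed; GFP cells quantified at 488/509 nm.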
Compound,"activity change, negative = inhibition",outcome
Cc1cc(C)cc(NC(=O)c2cc(S(=O)(=O)N3CCCCCC3)cn2C)c1,inactive: 10.6%,–
COCCn1c(SCC(=O)c2cc(C)ccc2C)nc2cc(C(=O)NC3CCCC3)ccc2c1=O,–,inactive
Nc1ccn([C@H]2CC[C@@H](CO)O2)c(=O)n1,inactive: -6.33%,–
CCC1CN(C(=O)N2CCC(C(=O)NCc3ccc(OC)cc3OC)CC2)c2cc(C)ccc2O1 (centres undefined),–,inactive
Cc1ccc(C2Nc3ccccc3-n3c(-c4ccccc4)c4c(=O)n(C)c(=O)n(C)c4c32)o1 (centres undefined),inactive: -5.34%,–
Cc1ccc(NC(=O)Cn2c(-c3ccc4c(c3)OCO4)cn(-c3ccccc3)c2=O)cc1C,inactive: -6.81%,–
COc1ccc(-c2nn(C)c3sc(C(=O)Nc4cccc(F)c4)cc23)cc1OC,inactive: -34.6%,–
CCc1ccc(NC(=O)c2ccc3c(c2)nnn3CC)cc1,inactive: 1.94%,–
CCOc1ccc(-c2nc(SC(C(C)=O)C(=O)N(C)C)c3c(=O)n(C)c(=O)n(C)c3n2)cc1 (centres undefined),inactive: 4.3%,–
Cc1c(Cl)cccc1-n1ncc(C(=O)Nc2ccc3c(c2)OCCO3)c1C1CCN(C(=O)OC(C)(C)C)CC1,–,inactive
CCN(CC)S(=O)(=O)c1ccc2c(c1)N(CC(=O)N1CCN(c3cccc(C(F)(F)F)c3)CC1)C(=O)CO2,inactive: 3.73%,–
Cc1ccc2cc3cc(C(=O)Nc4ccc(F)cc4Cl)oc3nc2c1,inactive: 0.588%,–
CO[C@H]1/C=C\O[C@@]2(C)Oc3c(C)c(O)c4c(O)c(c(C=NN5CCN(C6CCCC6)CC5)c(O)c4c3C2=O)NC(=O)C(C)=CC=C[C@H](C)[C@H](O)[C@@H](C)[C@@H](O)[C@@H](C)[C@H](OC(C)=O)[C@H]1C,inactive: 4.64%,–
Cc1ccccc1OCC(=O)OCc1cc(=O)n2ccsc2n1,inactive: -3.18%,–
COCCNC(=O)CCc1nc2cccnc2n1Cc1ccc(OC)cc1,inactive: -11.9%,–
CCc1ccc(OC(C)C(=O)Nc2c(C(=O)c3ccccc3)oc3ccccc23)cc1 (centres undefined),inactive: 10.6%,–
COc1ccc(Cl)cc1NC(=O)c1cc2c(s1)-c1ccccc1OC2,inactive: -5.38%,–
COc1cccc(C2C(C(=O)Nc3ccccc3)=C(C)Nc3nc(-c4ccccc4)nn32)c1 (centres undefined),inactive: -3.83%,–
COc1ccc(OC)c(NC(=O)CSc2cn(CC(=O)N3CCOCC3)c3ccccc23)c1,inactive: -1.33%,–
Oc1c(Br)cc(Br)cc1-c1nc2ccccc2s1,inactive: -0.168%,–
CS(=O)(=O)N(CC(=O)NCCSc1ccccc1)c1cc(C(F)(F)F)ccc1Cl,–,inactive
COc1ccc(-c2noc(-c3ccc(NC4CCCC4)c([N+](=O)[O-])c3)n2)cc1,–,inactive
O=C(c1ccccc1)c1ccccc1NC(=O)c1ccccc1C(=O)O,–,inactive
Cc1ccc(-c2nc(CS(=O)CC(=O)N3CCN(c4ccccc4)CC3)c(C)o2)cc1 (centres undefined),inactive: 5.93%,–

Compound,"activity change, negative = inhibition",outcome
CCCN(CCC)C(=O)C1CCCN(S(=O)(=O)c2ccc3c(c2)oc(=O)n3C)C1 (centres undefined),inactive: -16.3%,–
Cc1ccc(C(=O)c2oc3ccccc3c2NC(=O)c2cc(-c3ccccc3)on2)cc1F,inactive: -0.114%,–
Cc1ccc(C)c(NC(=O)C2CCCN(S(=O)(=O)c3ccc4[nH]c(=O)ccc4c3)C2)c1 (centres undefined),inactive: -15.3%,–
CCN(CC)c1cc(C)c2cc(NC(=O)/C=C/c3ccc(C)cc3)ccc2n1,inactive: -19.8%,–
CC(=O)c1ccc(N2CCN(C(=O)c3cc4cc5cc(C)ccc5nc4s3)CC2)cc1,–,inactive
COc1ccc(NC(=O)[C@@H](c2ccccc2)N2Cc3ccccc3C2=O)cc1OC,inactive: 49.2%,–
CC(=O)Nc1nonc1-c1nnc(SCC(=O)Nc2ccc(C)cc2C)n1C,inactive: -7.17%,–
CCOc1ccc(CNC(=O)c2c(C)nn(-c3ccc(F)cc3)c2-n2cccc2)cc1,inactive: 8.59%,–
Cc1noc(Cn2c(=O)c3cc4c(cc3n(CC(=O)Nc3cccc(Cl)c3)c2=O)OCO4)n1,inactive: -10.6%,–
Cc1ccc(-n2nc(C(=O)NCCN(C)C)c(=O)n(C)c2=O)cc1,inactive: -3.36%,–
Cc1ccc(CSCC(=O)N2CCN(c3cc(Cl)ccc3C)CC2)cc1,inactive: -5.07%,–
CC1CCc2c(sc(NC(=O)COc3ccccc3)c2C(=O)Nc2ccccc2Cl)C1 (centres undefined),inactive: 6.41%,–
CCOc1cccc2cc(-c3nnc(Nc4ccc(F)c(Cl)c4)s3)c(=O)oc12,inactive: 4.61%,–
Cc1ccc(-c2nn(CC(=O)NC3CCCCC3)c3c2cnc2ccc(F)cc23)cc1C,inactive: -7.24%,–
Cn1c(=O)[nH]c(=O)c2c1nc1n(CCO)c(-c3ccccc3)cn21,inactive: 16.7%,–
O=C(CSc1nc2c(cnn2-c2ccc(F)cc2)c(=O)[nH]1)Nc1ccc(Br)cc1,inactive: -7.13%,–
CCCCOc1ccc(-c2cc3c(=O)n(CC(=O)Nc4ccc(Cl)cc4Cl)ccn3n2)cc1,–,inactive
COc1cccc(NC(=O)CC2C(=O)OCCN2Cc2ccccc2)c1 (centres undefined),inactive: 18.2%,–
COc1cccc(-c2cc(=O)c3ccccc3o2)c1N,inactive: -16.2%,–
Cc1ccc2oc(C(=O)N(Cc3ccccc3F)C3CCS(=O)(=O)C3)c(C)c2c1 (centres undefined),inactive: -6.04%,–
Cc1[nH]c2ccccc2c1C(=O)C(=O)NC1CC(=O)N(c2cccc(F)c2)C1 (centres undefined),inactive: -2.11%,–
COc1ccc(C2C(C(N)=O)=C(C)Nc3nc(-c4ccccc4Cl)nn32)cc1 (centres undefined),inactive: 20.5%,–
Cc1ccc(Cl)cc1NC(=O)CN(C)S(=O)(=O)c1ccc2c(c1)n(C)c(=O)c(=O)n2C,inactive: -7.02%,–
Cc1cccc(C)c1Nc1c(-c2ccc(Cl)s2)nc2ncccn12,inactive: -18.1%,–

Compound,"activity change, negative = inhibition",outcome
CC(C)C(=O)OC1=CN(Cc2ccccc2)S(=O)(=O)c2ccccc21,inactive: 6.43%,–
COc1ccccc1CNC(=O)c1ccc2c(c1)sc1nc(-c3ccc(F)cc3)cn12,inactive: 3.01%,–
COc1cccc(CNC(=O)c2cc(=O)[nH]c3ccc(S(=O)(=O)N4CCCCC4)cc23)c1,–,inactive
CCn1cc(C(=O)OCC(=O)Nc2cc(C)cc(C)c2)c(=O)c2ccc(C)nc21,–,inactive
COC(=O)c1scc(-c2ccc(C)cc2)c1S(=O)(=O)Nc1cccc(C(F)(F)F)c1,–,inactive
COc1ccc(CCNC(=O)c2cc(-c3ccccc3)nc3ccccc23)cc1OC,inactive: 58.2%,–
CC(C)c1nnc(N2C(=O)c3oc4ccccc4c(=O)c3C2c2cccc(O)c2)s1 (centres undefined),inactive: 12.4%,–
O=C(CSc1cn(CC(=O)N2CCCCCC2)c2ccccc12)Nc1ccccc1F,inactive: -16%,–
CCc1nnc2c(NCc3ccccc3OC)nc3ccccc3n12,inactive: 8.37%,–
CCOc1ccc(CC(=O)Nc2nnc3n2CCS3)cc1,–,inactive
CCC(=O)N1CCc2cc(S(=O)(=O)NCCC(=O)Nc3ccc(OC)c(Cl)c3)ccc21,–,inactive
Cc1nn(CCCC(=O)NCc2ccccc2)c(=O)c2nn(-c3ccccc3)c(C)c12,–,inactive
COC(=O)c1sc2cccc(F)c2c1S(=O)(=O)Nc1cc(OC)cc(OC)c1,–,inactive
O=C(CSc1nc2ccccc2c(=O)n1CCC(=O)NC1CCCCC1)Nc1ccccc1Cl,inactive: 1.97%,–
Cc1c(C(=O)NCc2ccc(N(C)C)cc2)oc2c1-c1nn(Cc3cccc(Cl)c3)cc1CC2,–,inactive
O=C(COc1ccccc1)Nc1ccc(S(=O)(=O)N(Cc2ccccc2)c2ccccc2)cc1,inactive: -10.7%,–
Cc1cc2c(cc1S(=O)(=O)N1CCC(C)CC1)OCC(=O)N2,inactive: 2.01%,–
COCCN1Cc2cccc(C(=O)Nc3ccc(C)cc3C)c2C1=O,–,inactive
Cc1c(Cl)cccc1NC(=O)c1cnc2sc(N3CCCC3)nn2c1=O,inactive: -5.65%,–
Cc1ccc(NC(=O)Cn2c(=O)n(CCCCCC(=O)NCc3ccc(F)cc3)c(=O)c3sccc32)c(C)c1,inactive: 0.309%,–
CCN(C(=O)C1CCN(S(=O)(=O)c2ccc3c(c2)CCCN3C(=O)C2CCC2)CC1)c1cccc(C)c1,inactive: -6.04%,–
COC(=O)CNC(=O)C(Cc1ccccc1)NS(=O)(=O)c1ccc2c(c1)c(=O)n(C)c(=O)n2C (centres undefined),inactive: -3.56%,–
COc1ccc(S(=O)(=O)c2cn(C)c3cc(N4CCCC4)c(F)cc3c2=O)cc1,inactive: 9.35%,–
COc1cccc(CNC(=O)c2cnc(N3CCCC3)nc2C)c1,–,inactive

Compound,"activity change, negative = inhibition",outcome
Cc1ccc(CNC(=O)c2ccc3c(c2)N(Cc2ccccc2F)C(=O)c2ccccc2S3(=O)=O)cc1,inactive: -6.36%,–
O=S(=O)(c1ccc2ccccc2c1)n1nc(-c2ccco2)nc1NCc1cccc(Cl)c1,inactive: -6.18%,–
CCCC12CN3CC(CCC)(CN(C1)C3c1c[nH]c3ccccc13)C2=O (centres undefined),inactive: -4.59%,–
Cc1ccc(-c2nnc(SCC(=O)N3CCc4ccccc43)o2)cc1,inactive: 3.63%,–
COc1ccc(-c2nc(-c3ccccc3)c(-c3ccccc3)[nH]2)cc1Br,inactive: 1.24%,–
CCOc1cc(CNCCSc2nnnn2-c2ccccc2)cc(Cl)c1OC,inactive: -8.54%,–
CC(C)Oc1ccc(CNS(=O)(=O)c2cnc(N)nc2)cc1,–,inactive
CCOc1ccc(CCNC(=O)Cn2nnc(-c3ccc(OC)c(OC)c3)n2)cc1OCC,–,inactive
CCCCNc1nc(Oc2ccc(=O)n(C)n2)nc(N(C)C)n1,inactive: 6.73%,–
CCCc1nn2c(=O)cc(COC(=O)c3ccc(NC(=O)C(C)Oc4ccccc4)cc3)nc2s1 (centres undefined),inactive: 2.84%,–
CSc1nc(-c2ccc(F)cc2)nc2c1Cc1c(CO)cnc(C)c1O2,inactive: 0.89%,–
O=C(CN1C(=O)C2(SCC(=O)N2c2ccccc2)c2ccccc21)NCc1ccccc1Cl (centres undefined),–,inactive
O=C(NC1CCCCC1)c1ccc2c(c1)N(Cc1ccccc1)C(=O)c1ccccc1S2,inactive: 3.78%,–
Cc1ccc2nc(-c3ccc(NC(=O)COc4c(C)ccc(C)c4C)cc3)sc2c1,inactive: 1.39%,–
CC(C)(C#N)c1cc(Cn2cncn2)cc(C(C)(C)C#N)c1,inactive: 17.6%,–
O=C(CSc1cn(CC(=O)N2CCCCC2)c2ccccc12)Nc1ccccc1F,inactive: -4.53%,–
COc1ccccc1-c1noc(CSc2nc3ccc(C)cc3[nH]2)n1,inactive: -11.9%,–
COc1cc2nccc(Oc3ccc(NC(=O)Nc4cc(C)on4)c(Cl)c3)c2cc1OC,inactive: 4.65%,–
COc1ccc(C(=O)c2cn(Cc3ccc(C)cc3)c3cc4c(cc3c2=O)OCO4)cc1,inactive: -44.4%,–
CCOc1ccccc1NC(=O)CSc1nccn1-c1ccc(Cl)cc1,–,inactive
CC(CNC(=O)C1CCN(Cc2cc3ccccc3n2Cc2ccccc2)CC1)c1ccccc1 (centres undefined),–,inactive
CCc1ccc(-c2cc3c(N4CCN(c5ccccc5)CC4)nccn3n2)cc1,inactive: -19.1%,–
